Reference: PubChem BioAssay AID624417 (National Center for Advancing Translational Sciences (NCATS), 2012)
Screen size: about 410,000 compounds; about 6,400 (1.6%) were called active. The inconclusive results got no clear call from the source; some entries with a clear call stand among them for comparison. The call rests on the fitted dose curve; in most records, active means well fitted inhibition curve with a large enough effect; inconclusive means small, poorly fitted or top-dose-only effect; inactive means no such curve, though single readings can be large or run the other way. No potency is given beside an inconclusive call; the fits are too rough.
Further: nearly all actives have a fitted effect of over 55% in size.
On the % scale 0 is the no-effect control and ±100 the full control effect; potency means the concentration at half of the fitted maximal effect; tags describe the fitted curve by direction and shape.

The compounds below were run against Glucagon-like peptide 1 receptor (Homo sapiens) (UniProt P43220) (assay: qHTS of GLP-1 Receptor Inverse Agonists (Inhibition Mode)). Settings: HEK293 GLP-1R CRE-luciferase, luminescence, 24 h, GLP-1R form is constitutively active; activity change, negative = inhibition: at 38.3 µM (top of the series) unless noted.
Sequence of UniProt P43220 (P43220 whole entry, looked up): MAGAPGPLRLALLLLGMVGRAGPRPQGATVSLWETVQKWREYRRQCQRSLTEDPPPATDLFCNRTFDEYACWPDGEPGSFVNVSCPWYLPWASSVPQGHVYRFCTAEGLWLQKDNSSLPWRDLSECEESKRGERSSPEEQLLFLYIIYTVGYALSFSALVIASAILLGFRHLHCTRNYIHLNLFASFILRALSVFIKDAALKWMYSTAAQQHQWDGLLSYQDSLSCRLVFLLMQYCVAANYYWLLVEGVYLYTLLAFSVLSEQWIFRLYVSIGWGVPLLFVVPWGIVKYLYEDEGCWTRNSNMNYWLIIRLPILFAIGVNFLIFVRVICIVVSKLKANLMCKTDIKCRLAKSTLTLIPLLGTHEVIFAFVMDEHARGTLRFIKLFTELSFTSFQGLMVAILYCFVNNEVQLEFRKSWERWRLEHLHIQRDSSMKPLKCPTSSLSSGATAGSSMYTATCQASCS
In short: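 Inverse agonists were sought by their lowering of basal cAMP reporter luciferase output in HEK293 cells stably carrying constitutively active human GLP-1R, after 24 h compound treatment.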
With `CCn1c(=NC(=O)CS(=O)(=O)c2ccc(C)cc2)sc2cccc(OC)c21` the Potency was inconclusive [inhibitor, single point].
`CN(C)C(CNC(=O)c1cccc(C#N)c1)c1ccco1` (stereo unspecified) was tested, and the “activity change, negative = inhibition” value was inactive: -28.8%.
In the case of `Cc1ccc2nc(SCC(=O)NCc3cccs3)[nH]c2c1`, the Potency is reported as inconclusive [inhibitor, single point].
`CC(C)CCNc1c(-c2cccs2)nc2ccccn12` was tested, and the Potency was inconclusive [inhibitor, partial curve].
In the case of `COc1ccccc1NC(=O)C1CCCN(c2ncnc3c2nc2n3CCCCC2)C1` (stereo unspecified), the Potency is reported as inconclusive [inhibitor, partial curve].
With `CCOc1ccc(OCC(O)CNC2CCN(Cc3ccccc3)CC2)cc1` (stereo unspecified) the Potency was inconclusive [inhibitor, partial curve, poor fit].
For `C[C@@H]1CN([C@@H](C)CO)C(=O)c2cc(Br)cnc2O[C@@H]1CN(C)Cc1ccc(Oc2ccccc2)cc1`, the Potency was inconclusive [inhibitor, single point].
With `Cc1c(Cl)cccc1NC(=S)NC1CCN(Cc2ccccc2)CC1` the Potency was inconclusive [inhibitor, partial curve, poor fit].
`Cc1ccc(Nc2ccccc2)cc1` was tested, and the “activity change, negative = inhibition” value was inactive: -21.2%.
With `Cc1cc(Cn2nc(C(=O)NCc3cccc(C(F)(F)F)c3)cc2-c2ccccc2)on1` the Potency was inconclusive [inhibitor, partial curve, poor fit].
With `Cc1ccc(Cn2c(=O)n(Cc3ccc(Cl)cc3)c(=O)c3cccnc32)cc1` the “activity change, negative = inhibition” value was inactive: -6.05%.
In the case of `CCCNC(=O)C1(C)CCN(Cc2ccc(Oc3ccccc3)cc2)C1` (stereo unspecified), the Potency is reported as inconclusive [inhibitor, single point].
For `O=C(N/N=C/c1cccc(O)c1)NC1CCCCC1`, the activity change, negative = inhibition was inactive: -6.59% [at 7.66 µM].
`O=C(N/N=C\c1c(O)ccc2ccccc12)c1cncc(Br)c1` was tested, and the Potency was inconclusive [inhibitor, full curve].
`COc1ccc(CNC(=O)COc2ccc(S(=O)(=O)N3CCCCC3)cc2)cc1` was tested, and the “activity change, negative = inhibition” value was inactive: -7.88%.
For `O=C(CN1C(=O)NC2(CCCCCCC2)C1=O)NCc1ccccc1Cl`, the Potency was inconclusive [inhibitor, single point].
With `NS(=O)(=O)c1ccc(NC(=S)Nc2ccc(Br)c(Cl)c2)cc1` the Potency was inconclusive [inhibitor, single point].
`Cc1onc(-c2c(F)cccc2Cl)c1C(=O)Nc1cccc(S(=O)(=O)N2CCCCC2)c1` was tested, and the Potency was inconclusive [inhibitor, single point].
For `Cc1ccc(S(=O)(=O)N2[C@@H](c3ccc(C(C)(C)C)cc3)C(C(=O)O)=CC[C@H]2c2cccs2)cc1`, the Potency was inconclusive [inhibitor, partial curve, poor fit].
`COc1ccc(NC(=O)C(c2ccc(OC)cc2)n2c(=O)c(-c3cc4ccccc4[nH]3)nc3ccccc32)cc1` (stereo unspecified) was tested, and the Potency was inconclusive [inhibitor, full curve].
With `CC1(C)SC(=S)N(Cc2ccc3c(c2)OCO3)C1N(O)C(=O)NC1CCCCC1` (stereo unspecified) the Potency was inconclusive [inhibitor, partial curve, poor fit].
`O=C(c1ccc2c(c1)N(Cc1cccc(Cl)c1)C(=O)c1ccccc1S2(=O)=O)N1CCN(c2cccc(C(F)(F)F)c2)CC1` was tested, and the “activity change, negative = inhibition” value was inactive: -8.34%.
For `O=C(N/N=C/c1ccc(F)cc1)c1cccc(NC(=O)c2ccc(F)cc2)c1`, the Potency was inconclusive [inhibitor, partial curve, poor fit].
With `CCOc1ccc(-c2nonc2NC(=O)COc2ccc(C)c(C)c2)cc1OCC` the “activity change, negative = inhibition” value was inactive: 4.37%.
With `Cc1ccc(C)c(S(=O)(=O)Nc2ccc(C(=O)NCC(c3ccco3)N3CCCCC3)cc2)c1` (stereo unspecified) the Potency was inconclusive [inhibitor, partial curve, poor fit].
For `O=C(NC(Cc1c[nH]c2ccccc12)C(=O)O)OCC1c2ccccc2-c2ccccc21` (stereo unspecified), the “activity change, negative = inhibition” value was inactive: 10.3%.
With `CCOc1ccc(S(=O)(=O)Nc2ccc(C(=O)NCC(c3ccco3)N3CCCCC3)cc2)cc1` (stereo unspecified) the Potency was inconclusive [inhibitor, partial curve, poor fit].
With `O=C(c1ccc([N+](=O)[O-])o1)N1CCc2ccccc2C1` the “activity change, negative = inhibition” value was inactive: 39%.
In the case of `CC(=O)c1ccc(NS(=O)(=O)c2ccc3[nH]c4c(c3c2)CCCCCC4)cc1`, the “activity change, negative = inhibition” value is reported as inactive: -16.4%.
For `CCC(CC)C(=O)N1CCc2cc(OC)c(OC)cc2C1COc1ccccc1OC` (stereo unspecified), the Potency was inconclusive [inhibitor, single point].
`S=C(Nc1ccc(Cl)cc1Cl)NC1CCCCC1` was tested, and the Potency was inconclusive [inhibitor, single point].
`Cc1ccc(O)c(C(CC(=O)NC2CCCCC2)c2ccccc2)c1` (stereo unspecified) was tested, and the Potency was inconclusive [inhibitor, single point].
In the case of `CN1CCN(CCCN2c3ccccc3Sc3ccc(Cl)cc32)CC1`, the Potency is reported as inconclusive [inhibitor, partial curve, poor fit].
For `Cc1ccc(C)c(Cn2nnc(C(=O)NCc3ccccc3)c2N)c1`, the “activity change, negative = inhibition” value was inactive: -4.02%.
For `Clc1ccccc1NN=Cc1ccccn1`, the Potency was active: 3.98 µM.
For `Oc1ccc(C[C@H]2CNC(=S)N2CC2CCCN2C[C@H](Cc2ccc(O)cc2)N2C[C@H](Cc3ccccc3)N(CC3CCCCC3)C2=S)cc1` (stereo partly specified), the Potency was inconclusive [inhibitor, partial curve, poor fit].
For `O=[N+]([O-])c1cccc(-c2ccc(/C=N/n3c(-c4ccccc4)n[nH]c3=S)o2)c1`, the “activity change, negative = inhibition” value was inactive: 0.617%.
For `O=C(CCc1nnc(CCCc2ccccc2)o1)NCCCC1CCCC1`, the Potency was inconclusive [inhibitor, single point].
With `COc1ccc(OCc2cc(/C=N\NC(=O)c3ccccc3)ccc2OC)cc1` the Potency was inconclusive [inhibitor, full curve, poor fit].
In the case of `CCCN1CNC(=S)N(CCc2ccccc2)C1`, the Potency is reported as inconclusive [inhibitor, single point].
For `Cc1ccc(Cl)cc1-c1cc(C(=O)NCc2ccccc2)[nH]n1`, the Potency was inconclusive [inhibitor, single point].
